These results are taken from ChEMBL document CHEMBL4888484, “Replenishing the malaria drug discovery pipeline: Screening and hit evaluation of the MMV Hit Generation Library 1 (HGL1) against asexual blood stage Plasmodium falciparum ,using a nano luciferase reporter read-out” (2022).

Broadly, the % Inhibition is the relative decrease from the control value, in per cent.

Each structure is given as a SMILES string. About 540 (0.36%) of roughly 150,000 compounds showed an effect of 50% or more. This is one part of the list.

The assay relates to Plasmodium falciparum. Put plainly: Primary screen in NF54 nanoGlo assay, in single point, at 2uM, 72h; a lower Z score goes with more inhibition. Type of assay: functional, Erythrocyte. Conditions: timepoint 72 hour.
As to `O=S(=O)(CCc1cccc2ccccc12)NCc1cc2n(n1)CCNC2`, the “% Inhibition” value was 4% and the Z score is -0.52.

With `CCCOc1ccc(-c2nc3c4c(ncn3n2)-c2ccccc2CC42CCCC2)cc1`, the “% Inhibition” value is recorded as -4% and the Z score was 0.61.

Regarding `Cc1nc(C)c(C)c(N2C[C@H]3CCC[C@@]3(CO)C2)n1`, the “% Inhibition” value worked out at 0% and the Z score is reported as -0.06.

With `O=C(c1coc(C2CCOCC2)n1)N1CCc2cc(-c3ccccc3)ccc21`, the “% Inhibition” value is given as -14% and the Z score was found to be 2.65.

For `CC[C@H]1COCCN1Cc1ccc(CN(C)S(C)(=O)=O)o1`, the “% Inhibition” value is recorded as 2% and the Z score is reported as -0.25.

Regarding `C=C(C)C(=O)Nc1ccc(Cl)c(C)c1`, the “% Inhibition” value was found to be 28% and the Z score is listed as -3.67.

With `COc1c(C)cc([C@H](C(=O)O)N(C)CCN2CCCCC2=O)cc1C`, the “% Inhibition” value was 5% and the Z score is recorded as -0.66.

Turning to `CCOCCC(=O)NC1CC(OCC)C12CCCC2` (centres undefined), the “% Inhibition” value is on record as -8% and the Z score came to 0.98.

Take `CN(C)c1ccnc(CNS(C)(=O)=O)n1`: the “% Inhibition” value stood at 5% and the Z score is listed as -0.81.

With `O=C1NC[C@@]2(CCCN(C(=O)CCc3ccc(=O)[nH]n3)C2)O1`, the “% Inhibition” value is given as -4% and the Z score was 0.38.

As to `COc1ccc(OC)c(NC(=O)c2cc(C)n(CCN(C)C)c2C)c1`, the “% Inhibition” value was -12% and the Z score came out at 2.24.

Consider `O=c1n(Cc2c(F)cncc2F)nnn1C1CC1`, for which the “% Inhibition” value was -10% and the Z score came out at 1.84.

As to `C#CCOCCC(=O)N(C)c1ccc(Br)cc1C`, the “% Inhibition” value is -16% and the Z score came out at 3.05.

Consider `O=C1CCc2cc(C(=O)N3CCC(c4ccccc4)CC3)ccc2N1`, for which the “% Inhibition” value is reported as -11% and the Z score is on record as 1.63.

In the case of `Cc1nn(C)c2nc(-c3ccccn3)nc(N3CCC(CCO)CC3)c12`, the “% Inhibition” value was -10% and the Z score was 1.35.

Regarding `NCc1ccc([C@@H](F)C(F)(F)F)cc1`, the “% Inhibition” value is listed as -10% and the Z score is given as 1.29.

For `O=C(c1ccc(F)cc1)N(Cc1ccc(-c2cccc(C(F)(F)F)c2)o1)[C@H]1CCS(=O)(=O)C1`, the “% Inhibition” value is recorded as -6% and the Z score stood at 0.75.

As for `CCc1ccc(C(=O)N[C@@H](C)Cn2cccn2)o1`, the “% Inhibition” value is -10% and the Z score is 1.45.

As to `COC1CC(NC(=O)c2cnc(C)nc2C)C12CCC2` (centres undefined), the “% Inhibition” value is reported as 6% and the Z score is -1.11.

For the compound `CC(C)c1cc(C(C)C)n(C2CCN(S(=O)(=O)c3ccccc3C#N)CC2)n1`, the “% Inhibition” value is -6% and the Z score amounted to 1.12.

For the compound `CCC=C(C)C(=O)NCc1c(C)cc(C)[nH]c1=O`, the “% Inhibition” value is -13% and the Z score is on record as 2.36.

Take `CC(=O)Nc1ccc(C[n+]2c3n(c4ccccc42)CCC3)cc1`: the “% Inhibition” value was -5% and the Z score was 0.75.

Consider `O=C(NCCn1cnc2cc(C(=O)N3CCCC3)ccc21)Nc1ccccc1C(F)(F)F`, for which the “% Inhibition” value is -13% and the Z score turned out to be 1.62.

For the compound `O=C1CCCN1C[C@@H](O)CN1CCCC1c1cccs1` (some centres undefined), the “% Inhibition” value was -31% and the Z score was found to be 3.59.

For the compound `CC(=O)NCC(=O)N1CC[C@H](c2cccc(Oc3ccccc3)c2)C1`, the “% Inhibition” value is -18% and the Z score amounted to 1.87.

Consider `COc1ccccc1OCC(=O)N1CCCC[C@@H]1Cn1cc(C)cn1`, for which the “% Inhibition” value is listed as -5% and the Z score came out at 0.92.

With `CCCn1ccnc1[C@@H]1CC(=O)Nc2cc(O)c(OC)cc21`, the “% Inhibition” value was -5% and the Z score stood at 0.97.

In the case of `CO[C@H]1CN(c2cccc(F)c2)C12CCN(C(=O)CCCc1ccccc1)CC2`, the “% Inhibition” value is recorded as -7% and the Z score was determined as 0.94.

Regarding `CCCN(CC(=O)NC(C)C)C[C@H]1CCCCO1`, the “% Inhibition” value is -9% and the Z score came to 0.84.

With `Cc1nc(N)n(C(=O)c2cccc3ccccc23)n1`, the “% Inhibition” value came to 1% and the Z score is recorded as -0.17.

With `CC[C@@]1(C)CN(C(=O)NCc2cncc(C)c2)CCO1`, the “% Inhibition” value turned out to be 2% and the Z score is -0.28.

Turning to `C[C@H]1C(=O)N(C)CCN1C(=O)c1cc(Cn2cnc3ccccc32)[nH]n1`, the “% Inhibition” value is -14% and the Z score was found to be 2.61.

For the compound `CCCc1nc(-c2ccccc2)oc1CC(=O)N1CCN(c2ccccc2F)CC1`, the “% Inhibition” value is reported as -1% and the Z score is on record as 0.1.

With `N#Cc1ccc(CN2CCN(C(=O)CN3CCOCC3)CC2)c(F)c1`, the “% Inhibition” value was 1% and the Z score is given as -0.11.

Consider `COc1ccc(Cl)cc1NC(=O)Cn1cnc2nc(N3CCOCC3)sc2c1=O`, for which the “% Inhibition” value turned out to be 1% and the Z score is -0.14.

As to `COCC1(C(=O)N2CCC3(CC2)[C@H](O)C[C@@H]3O)CCC1`, the “% Inhibition” value was 4% and the Z score is -0.76.

Regarding `Cc1noc(C)c1CO[C@H]1CN(Cc2ccccn2)CC(=O)N(CC(C)C)C1`, the “% Inhibition” value was 0% and the Z score came out at 0.02.

With `CCOC(=O)c1ccc(N2CC(O)C2)nc1`, the “% Inhibition” value was -11% and the Z score was 1.41.

As for `COCc1nc(N2CCN(C(=O)NC(C)C)CC2)c2c(C)nn(-c3ccc(C)cc3)c2n1`, the “% Inhibition” value is -4% and the Z score is on record as 0.57.

Take `Cc1cn2c(n1)CC[C@H](Nc1nc(C(C)C)no1)C2`: the “% Inhibition” value is given as -4% and the Z score was 0.38.

As for `O=C(CCc1conc1-c1ccccc1)NCc1ccccc1Br`, the “% Inhibition” value is listed as -13% and the Z score stood at 1.68.

In the case of `CCOc1ccc2nc(CN(C)[C@@H]3CCCC[C@@H]3O)ccc2c1`, the “% Inhibition” value is recorded as -18% and the Z score stood at 1.9.
